About 620 (0.23%) of roughly 270,000 compounds were called active. This list was built around the results that the source calls inconclusive (neither active nor inactive); the mix of calls is not that of the screen. Calls follow the shape of the dose curve; as a rule, active = well fitted inhibition curve with a large enough effect in the polarisation, with a control signal flat (not every such curve was filed as active); inconclusive = small, poorly fitted or top-dose-only effect, or effect the other way, or a change in a side signal; inactive = no such curve, though single readings can be large or run the other way; the % refers to the polarisation. A potency beside an inconclusive call is a rough fit, not a confirmed value. “Side channel” marks fits to a control or component signal instead of the main read-out.
Each compound was assayed against Menin (Homo sapiens) (UniProt O00255) (assay: qHTS Assay for Inhibitors Targeting the Menin-MLL Interaction in MLL Related Leukemias: Competition With Texas Red Labeled MLL-derived Mutant Peptide). Settings: fluorescence polarization; series mostly up to 61.6 µM.
Chain of UniProt O00255 (O00255 whole entry, looked up): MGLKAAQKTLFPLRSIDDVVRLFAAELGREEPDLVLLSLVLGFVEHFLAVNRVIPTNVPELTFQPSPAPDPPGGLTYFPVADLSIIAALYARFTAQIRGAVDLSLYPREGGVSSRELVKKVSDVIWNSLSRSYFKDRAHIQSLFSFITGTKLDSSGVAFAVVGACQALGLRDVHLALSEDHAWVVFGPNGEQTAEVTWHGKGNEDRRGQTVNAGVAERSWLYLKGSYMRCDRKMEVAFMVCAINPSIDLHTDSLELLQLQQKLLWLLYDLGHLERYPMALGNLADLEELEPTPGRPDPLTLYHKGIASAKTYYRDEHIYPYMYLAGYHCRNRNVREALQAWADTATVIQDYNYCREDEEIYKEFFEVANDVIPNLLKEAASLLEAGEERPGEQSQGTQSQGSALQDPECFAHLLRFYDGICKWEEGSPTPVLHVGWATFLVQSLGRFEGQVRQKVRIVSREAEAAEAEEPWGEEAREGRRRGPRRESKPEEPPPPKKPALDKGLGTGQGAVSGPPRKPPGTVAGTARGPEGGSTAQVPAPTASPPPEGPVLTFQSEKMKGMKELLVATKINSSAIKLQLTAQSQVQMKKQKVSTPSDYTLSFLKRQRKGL
With `Cc1cc(NCCCN2CCOCC2)n2ncc(-c3ccc(Cl)cc3)c2n1` the Potency was inconclusive: 11.2 µM [quencher, side channel, partial curve].
`N#Cc1ccsc1NC(=O)COC(=O)c1ccc(NC(N)=O)cc1` was tested, and the Potency was inconclusive: 35.5 µM [quencher, side channel, single point].
For `O=C(Nc1cccc(NC(=O)c2nccc3ccccc23)c1)c1ccco1`, the Potency was inconclusive: 10 µM [quencher, side channel, partial curve].
In the case of `Cc1ccc(Nc2nc3ccc(Cl)cc3n3cnnc23)cc1F`, the Potency is reported as inconclusive: 11.2 µM [quencher, side channel, partial curve].
For `CCOC(=O)c1c(N)sc2c(OC)c(Br)ccc12`, the Potency was inconclusive: 39.8 µM [quencher, side channel, single point].
With `CC1CCCC(C)N1c1ccc(S(=O)(=O)N2CCOCC2)cc1Cl` (stereo not given) the Potency was inconclusive: 15.8 µM [fluorescent, side channel, partial curve].
With `Cc1cccc(C(=O)N2CCC(=O)N([C@H](COCc3cccc(C(F)(F)F)c3)Cc3ccccc3)CC2)c1` the Potency was inconclusive: 4.47 µM [fluorescent, side channel, partial curve].
With `COc1ccc(/C=C2\Oc3cc(OCC(=O)N4CCC(C(=O)O)CC4)ccc3C2=O)c(OC)c1` the Potency was inconclusive: 11.2 µM [quencher, side channel, partial curve].
`CN(C)c1ccnc(Nc2ccccc2)c1C#N` was tested, and the Potency was inconclusive: 0.708 µM [inhibitor, partial curve, poor fit].
In the case of `CN1c2ccccc2C(O)=C(C(=S)Nc2ccc(Cl)cc2)S1(=O)=O`, the Potency is reported as inconclusive: 28.2 µM [quencher, side channel, single point].
With `O=C(NCC1OCCc2ccccc21)c1ccco1` (stereo not given) the Potency was inconclusive: 0.708 µM [inhibitor, full curve, poor fit].
`Cc1ccc(SCC(=O)Nc2cccc(NC(=O)c3ccco3)c2)cc1` was tested, and the Potency was inconclusive: 31.6 µM [quencher, side channel, partial curve].
For `[O-]/C(=C(\C(=S)Nc1cccc2ccccc12)[n+]1ccccc1)c1cccs1`, the Potency was inconclusive: 25.1 µM [quencher, side channel, partial curve].
In the case of `CC(=O)Nc1ccc(S(=O)(=O)Nc2cccn(Cc3ccc(C)cc3)c2=O)cc1`, the Potency is reported as inconclusive: 10 µM [quencher, side channel, partial curve].
In the case of `CC(=O)Oc1ccc(-c2csc(Nc3ccc(Cl)cn3)n2)cc1`, the Potency is reported as inconclusive: 3.16 µM [quencher, side channel, full curve].
For `Cc1cc2c(c(=O)o1)C1O[C@](c3ccsc3)(Cc3cc(C#N)ccc31)O2`, the Potency was inconclusive: 6.31 µM [quencher, side channel, single point].
For `Cc1ccc2oc(C(=O)Nc3ccc(S(=O)(=O)Nc4onc(C)c4C)cc3)c(C)c2c1`, the Potency was inconclusive: 12.6 µM [quencher, side channel, partial curve].
In the case of `Cc1cccc(NC(=O)Nc2ccc(Br)cc2)n1`, the Potency is reported as inconclusive: 35.5 µM [fluorescent, side channel, single point].
For `CN1C(=O)C2(c3ccccc31)N(C)CC(c1ccccn1)C21SC(=S)N(Cc2ccco2)C1=O` (stereo not given), the Potency was inconclusive: 20 µM [inhibitor, single point].
`Cc1cccc(C(=O)Oc2ccccc2C2C[C@]3(C)CC(=O)NC3N2C(=O)c2cccc(C)c2)c1` (stereo not given in full) was tested, and the Potency was inconclusive: 3.16 µM [fluorescent, side channel, full curve].
For `COc1ccccc1/C=N/NC(=O)COCC(=O)N/N=C/c1ccccc1OC`, the Potency was inconclusive: 14.1 µM [fluorescent, side channel, partial curve].
With `Cc1nnc(NC(=O)c2ccc(S(=O)(=O)N3CC(C)CC(C)C3)cc2)o1` (stereo not given) the Potency was inconclusive: 14.1 µM [quencher, side channel, partial curve].
With `O=[N+]([O-])c1ccccc1Nc1ccc(O)cc1` the Potency was inconclusive: 15.8 µM [quencher, side channel, partial curve].
In the case of `CCOc1ccc(-n2c(N)c(-c3nc4ccccc4[nH]3)sc2=S)cc1`, the Potency is reported as inconclusive: 15.8 µM [quencher, side channel, partial curve].
In the case of `C[C@H]1C(c2ccccc2)=NN(c2ccccc2)[C@@H]1CO`, the Potency is reported as inconclusive: 31.6 µM [quencher, side channel, single point].
With `CCN(Cc1ccccc1)S(=O)(=O)c1ccc(C(=O)N(CCCN(C)C)c2nc3c(F)cccc3s2)cc1` the Potency was inconclusive: 1.26 µM [fluorescent, side channel, full curve].
`CC(C)OCCCNc1ncnc2c1nc1n2CCCC1` was tested, and the Potency was inconclusive: 39.8 µM [inhibitor, single point].
With `Cn1c(NC(=O)/C=C/c2ccc(Cl)c(Cl)c2)cc(=O)n(C)c1=O` the Potency was inconclusive: 39.8 µM [quencher, side channel, single point].
In the case of `C/C(=N\NC(=O)CCc1c[nH]c2ccccc12)c1cccc([N+](=O)[O-])c1`, the Potency is reported as inconclusive: 11.2 µM [quencher, side channel, partial curve].
In the case of `CC(NC(=O)C1CCCN1C(=O)CN)C(=O)O` (stereo not given), the Potency is reported as “inactive”.
With `O=C(CSCc1ccc(Cl)cc1)Nc1ccc(Br)cc1C(=O)O` the Potency was inconclusive: 31.6 µM [quencher, side channel, single point].
In the case of `CCOC(=O)c1[nH]c2ccc(OC)cc2c1NC(=O)c1nonc1C`, the Potency is reported as inconclusive: 8.91 µM [quencher, side channel, partial curve].
In the case of `Cc1ccc(-c2csc(NC(=O)CN3CCOCC3)n2)cc1C`, the Potency is reported as “inactive”.
For `CN(c1ccccc1)S(=O)(=O)c1ccc(C(=O)Nc2nnc(-c3ccco3)o2)cc1`, the Potency was inconclusive: 22.4 µM [quencher, side channel, partial curve].
With `Cc1nnc(NC(=O)CSc2nnc(C)n2Cc2ccccc2)s1` the Potency was inconclusive: 3.55 µM [inhibitor, partial curve].

Reference: PubChem BioAssay AID1768 (National Center for Advancing Translational Sciences (NCATS), 2009)
Potency is read from the fitted curve at half-maximal effect; tags tell the direction and shape of the fitted curve or compound fluorescence and quenching.
